Drawing on publication PMC12136788, this text covers binding signal for 22 molecules.

Some of the results follow.

The labels stand for the following.
T1: UNK ZnF1-6 (called full-length) (human, UniProt Q9C0B0 30-357)
T1 sequence: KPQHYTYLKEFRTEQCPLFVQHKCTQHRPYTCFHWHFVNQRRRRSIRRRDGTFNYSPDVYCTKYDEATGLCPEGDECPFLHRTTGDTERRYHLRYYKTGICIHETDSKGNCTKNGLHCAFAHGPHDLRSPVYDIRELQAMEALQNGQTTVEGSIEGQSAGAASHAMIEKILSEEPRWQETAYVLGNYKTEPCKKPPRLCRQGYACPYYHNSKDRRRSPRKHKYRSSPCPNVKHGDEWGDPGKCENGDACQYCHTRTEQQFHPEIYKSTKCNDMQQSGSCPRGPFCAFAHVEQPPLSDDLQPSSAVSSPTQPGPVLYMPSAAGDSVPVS

B1: chr12:56162362:56162467:-|3pUTR|ENSG00000139613|unk|FALSE|unique (ssRNA)
RNA: GGGAGUUCUACAGUCCGACGAUCGGUUCCUCCCACCAGGCCCUUUGUUCCUCAUGUCCCCAUGUUUCUCUCCCUCUGCGUCUUAGCACCUUUCUUCUGUUCAAAGUUUUCUGUAAAUUUUCUCUUUUUUUCUUUCUUUCUUUUCAACAGAGGAUUGAGCAUCA
B2: chr2:216675367:216675485:-|3pUTR|ENSG00000115461|msi1|total|mutant (ssRNA)
RNA: GGGAGUUCUACAGUCCGACGAUCGCCAGGCAGAGGCCAGCCCUCCGUGGUGCACACAGCACGCGCCUCAGUCCAUCCCAUUUCCGUCUUUAAACCCUCAGGAAGUCACAGUCUCCGGACACCACACCACAUGAGCCCAACAGGCAACAGAGGAUUGAGCAUCA
B3: ENSG00000107863:be:win_3551|CDS|ENSG00000107863|bound_else_gene|NA|bound_elsewhere_windowed (ssRNA)
RNA: GGGAGUUCUACAGUCCGACGAUCGAGUUCCUGGAAAUAAUGCAGCCAUCUCAAGUAUGCAAGAAGAACUCAACAAGGGAAUGGCUGAUAUUGAUAUACAAGAUGAUAAAUGGCGAGAUUUGAAUGUGAUAAGCAGUUUACUAACAACAGAGGAUUGAGCAUCA
B4: chr10:73251842:73251943:-|CDS|ENSG00000182180|msi1|total|mutant (ssRNA)
RNA: GGGAGUUCUACAGUCCGACGAUCUCGGCCGUUCUACCGCAUUGUGGCUGCUCACAACAAGUGUCCCAGGGAUGGCCGUUUCGCCGAGCAGCUGGGCUCCUAUGAUCCAUUGCCCAACAGUCAUGGAGAAAAACUCGUUGCCCUCAACAGAGGAUUGAGCAUCA
B5: chr2:159433012:159433119:-|CDS|ENSG00000123636|unk|FALSE|unique (ssRNA)
RNA: GGGAGUUCUACAGUCCGACGAUCGCACUUACUACCAAAACUAAAAUGCAGAGCAAGAUUAAUGAAAACAUUGCUGCUGCAAGUAGCACCCCUUUUUCCUCACCUGUAAAUCUGAGUACAAGUGGGAGAAGAACCCCUGGCAAUCAACAGAGGAUUGAGCAUCA
B6: chr1:42176760:42176861:-|3pUTR|ENSG00000198815|msi1|total|mutant (ssRNA)
RNA: GGGAGUUCUACAGUCCGACGAUCGUCGCUCAGAUGUCCUUUGAAGUGGGAGGGAAUCAAUCCGGGGAUAAUUUCAAAUGGAACCGAGUAUUUUGAUAUUGUUCAUUCAGAGGGUGAUGUGUACAUAUCUAUAUUGUAUAUAUGCAACAGAGGAUUGAGCAUCA
B7: chr1:54850123:54850236:-|3pUTR|ENSG00000116133|msi1_unk|FALSE|overlapping (ssRNA)
RNA: GGGAGUUCUACAGUCCGACGAUCGCCUCCAACCCUAAGCCACUGGGACGGUGGCCAGAGAUGCCAGCAGCCUCUGUCGCCCUUAGUCAUAUAACCAAAAUCCAGACCUUAUCCACAACCCGGGGCUUGGAAAGGAAGGUAUUUCAACAGAGGAUUGAGCAUCA
B8: chr4:124666837:124666938:-|3pUTR|ENSG00000151458|msi1|FALSE|unique (ssRNA)
RNA: GGGAGUUCUACAGUCCGACGAUCAAUGAUUUCUUGGCAGUUUAAAAAAAAUAUUUUAUAGUAGUUUAGGGAGCUGCUUUAAGUAGUUUAAAUCUGGAUUUUCCCAGUAGAAUUCUUCUCAUCUCUGGCUAAACAUGUCAGAACCAACAGAGGAUUGAGCAUCA
B9: ENSG00000133687:stop:overlap|stop_codon|ENSG00000133687|stop_codon|NA|stop_codon (ssRNA)
RNA: GGGAGUUCUACAGUCCGACGAUCUUGCCAAAUUGGAUCGCCUAGAAAAACGAUUACAAGAAGUUCGAGAAAAGGAUCAAACAUAGCACCACCGUCUGACCCAACCUCAUAGGAUAAUGUGGUGCCUCUGAAAGGGGAGUGAUGCAACAGAGGAUUGAGCAUCA
B10: ENSG00000198589:be:win_2001|CDS|ENSG00000198589|bound_else_gene|NA|bound_elsewhere_windowed (ssRNA)
RNA: GGGAGUUCUACAGUCCGACGAUCGAAGGAUUCUGGAGUAAAGGAAGAUGAAUUACAGGCCAUUCUUAAUUACCUACUGACUAUGCAUGAGGAUGACAAUCUAAUGGAUGUCCUACAGCUGCUUGUUGCAUUAAUGUCAGAACACAACAGAGGAUUGAGCAUCA
B11: chr1:109310645:109310811:-|3pUTR|ENSG00000134243|msi1|FALSE|unique (ssRNA)
RNA: GGGAGUUCUACAGUCCGACGAUCAGGGUAACGGGGCUGGCCUGGCAUUAGUCAUUAUUUAGUUUCCAGGCCAACCAUCCAGAUAGAGAUUCCCUCUUUCCUUUGAGCAGUGCUCUCAAGAGCUCCGUGCCUGUCCACAAUGACCAACAGAGGAUUGAGCAUCA
B12: chr21:25758092:25758193:+|CDS|ENSG00000154727|unk|total|mutant (ssRNA)
RNA: GGGAGUUCUACAGUCCGACGAUCGAAUUCAGCAUGACCGAUACCGACCUCACCACACUCAACAUUUCGGGGAGAGAAUUAUGCCGUCUCAACCAAGAAGAUUUUUUUCAGCGGGUUCCUCGGGGAGAAAUUCUCUGGAGUCAUCAACAGAGGAUUGAGCAUCA
B13: chr3:41225653:41225883:+|CDS|ENSG00000168036|unk|FALSE|unique (ssRNA)
RNA: GGGAGUUCUACAGUCCGACGAUCCAUUACAACUCUCCACAACCUUUUAUUACAUCAAGAAGGAGCUAAAAUGGCAGUGCGUUUAGCUGGUGGGCUGCAGAAAAUGGUUGCCUUGCUCAACAAAACAAAUGUUAAAUUCUUGGCCAACAGAGGAUUGAGCAUCA
B14: chr9:83661418:83661519:-|3pUTR|ENSG00000135018|msi1|FALSE|unique (ssRNA)
RNA: GGGAGUUCUACAGUCCGACGAUCUAUAGUUGGGUGACCAGAUUUUGUCCUGCAUCUGUCCAGUUUAUUUGCUUUUUAAACAUUAGCCUAUGGUAGUAAUUUAUGUAGAAUAAAAGCAUUAAAAAGAAGCAAAUCAUUUGCACUCAACAGAGGAUUGAGCAUCA
B15: chr15:34983303:34983404:-|CDS|ENSG00000198146|msi1|FALSE|unique (ssRNA)
RNA: GGGAGUUCUACAGUCCGACGAUCGCUGAAAACAAUUUAAAAAUGCUAAAGAUUCAACAGUGUGUGGUAGCCAACAAACUACCUAGAAACAGGCCAUAUGUUUGCAAUAUUUGUUUUAAGCACUUUGAAACACCAUCAAAAUUACAACAGAGGAUUGAGCAUCA
B16: chr10:30312946:30313047:-|3pUTR|ENSG00000107951|unk|total|mutant (ssRNA)
RNA: GGGAGUUCUACAGUCCGACGAUCUCUUAUUCACAUAUAAAUUAAAGUGGGUUGGUACUGAUAUCAAAAAAUGUUUAUGUUUUCCGAACAGACAUUUCAGUCACUGCAUUCUCCGGUAUUCCAAACCAAAUAUGAUGACAUCAACAACAGAGGAUUGAGCAUCA
B17: chr16:3022182:3022332:+|3pUTR|ENSG00000006327|msi1|FALSE|unique (ssRNA)
RNA: GGGAGUUCUACAGUCCGACGAUCCCACGGGGGUCACCCUGGGGGGUUAGGGACCUAUUUUUAACACUAGGGGGCUGGCCCACUAGGAGGGCUGGCCCUAAGAUACAGACCCCCCCAACUCCCCAAAGCGGGGAGGAGAUAUUUCAACAGAGGAUUGAGCAUCA
B18: chr1:235448940:235449205:-|3pUTR|ENSG00000162885|unk|total|mutant (ssRNA)
RNA: GGGAGUUCUACAGUCCGACGAUCAACCGAGAAUUCCAUUAAAACCCGUCUUAUGACAGAUAUUAACUGUGUUCAGAUUUUAUCCGGCCCGCCCGUUUCUUUCUAUUUAAUAUUUAAAUCUUAUCAUGAAAUGCAGUGAUGAGCCAACAGAGGAUUGAGCAUCA
B19: chr7:123541454:123541562:-|3pUTR|ENSG00000128609|unk|FALSE|unique (ssRNA)
RNA: GGGAGUUCUACAGUCCGACGAUCUCCAUAGUGUCAUUUUAUUUUAGUCAUUAUUGAAUUAUACCAUUUACUCUGUUUUCUUAUAGUCUUAAUUUUAUUAUAUUUUGUUGUUACUGUAUUAUAUUUGAAAACCUUCAAAUUAGACAACAGAGGAUUGAGCAUCA
B20: chr2:227551976:227552087:+|CDS|ENSG00000173744|unk|total|mutant (ssRNA)
RNA: GGGAGUUCUACAGUCCGACGAUCUCCAUGAGCAUGCCCACAGGAUUCGGCACUCCUGCUCCCUACAGUCUUCCCACCAGCUUCCGUGGCAGCUUUCAGCAGCCUGCCUUUCCAGCCCAAGCAGCUUUCCCUCAACAGACAGCUCAACAGAGGAUUGAGCAUCA
B21: ENSG00000070961:be:win_3151|CDS|ENSG00000070961|bound_else_gene|NA|bound_elsewhere_windowed (ssRNA)
RNA: GGGAGUUCUACAGUCCGACGAUCACAUUACUCUGGGGCCAGCUUAUUUCAACAAUUCCAACUAGCCGUUUAAAAUUCCUCAAAGAAGCUGGUCAUGGAACACAAAAGGAAGAAAUACCUGAGGAGGAAUUAGCAGAGGAUGUUCAACAGAGGAUUGAGCAUCA
B22: chr17:41167230:41167584:-|three_prime_utr|ENSG00000196156|control|control|control (ssRNA)
RNA: GGGAGUUCUACAGUCCGACGAUCAUGUGGACUUCCUGAUGUCGUGAAAACAGAGGCAUGGACUGAUUUGGAAAAUAUUUUAUUAGUAUGUAUUCUCUUUUAUAGAAGUUUUUAUUCCUAUUGAAUCUGAAUUUACAGUCAAAUCAACAGAGGAUUGAGCAUCA

This assay concerns the target T1, UNK ZnF1-6 (called full-length). In words: nsRBNS (natural sequence RNA bind-n-seq); RBNS binding buffer (assumed for nsRBNS): 25 mM Tris pH 7.5, 150 mM KCl, 3 mM MgCl2, 0.01% Triton X-100, 500 ug/ml BSA, 20 U/ml SUPERase-In, 4 C; UNK is unkempt and MSI1 is Musashi-1; names of the RNAs are library labels; protein concentration not given here; high values mean tight binding.
Molecule B1 had a binding signal of 1.8 enrichment R.
The value for B2 was 0.85 enrichment R; that for B3 was 0.37 enrichment R; that for B4 was 0.497 enrichment R.
The value for B5 was 0.502 enrichment R; that for B6 was 1.09 enrichment R; that for B7 was 2.25 enrichment R.
In turn, B8 returned a binding signal of 1.65 enrichment R.
Molecule B9 showed a binding signal of 0.41 enrichment R.
For B10, the binding signal was 0.539 enrichment R.
In the case of B11 it was 2.82 enrichment R; in that of B12, 0.691 enrichment R; in that of B13, 0.535 enrichment R.
The molecule B14 came in with a binding signal of 7.97 enrichment R.
Molecule B15 showed a binding signal of 0.38 enrichment R.
In the case of B16 it was 0.417 enrichment R.
The value for B17 was 0.628 enrichment R; that for B18 was 2.39 enrichment R.
As to B19, the binding signal worked out at 150 enrichment R.
As for B20, the binding signal is 0.925 enrichment R.
On to B21, for which the binding signal was 1.14 enrichment R.
Molecule B22 returned a binding signal of 5.74 enrichment R.
